# Measured values reported in the supplement of paper PMC8728848.
# The list shows a part of the results.
# B1: EULS2 M2 (Oryza sativa) (protein)
# chain: MVYCRANPNYAMTARNGAVVLAPANPKDEYQHWIKDMRWSTSIKDEEGYPAFALVNKATGQAIKHSLGQSHPVRLVPYNPEVMDESVLWTESRDVGNGFRCIRMVNNIYLNFDAFHGDKYHGGVRDGTDIVLWKLCEGDSQRWKIQPYYILEQKLISEEDLNSAVDHHHHHH
# Assays:
# Experiment in all cases: glycan array binding signal (z-score within array); higher = stronger binding
# Conditions in all cases: glycan notation: IUPAC condensed, linker removed
# [1] = target: Fuc(a1-2)Gal6S(b1-3)GlcNAc6S
# Procedure, shortened: (§1)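 From the Consortium for Functional Glycomics database, 3228 arrays were curated, keeping only those whose protein sequence was available. Binding is given as a within-array Z-score averaged across arrays sharing a protein sequence and across linkers. Negative Z-scores can be read as non-binding.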
# Fuc(a1-2)Gal6S(b1-4)Glc = target: Fuc(a1-2)Gal6S(b1-4)Glc
# Procedure, shortened: as §1
# [2] = target: Fuc(a1-2)Gal6S(b1-4)Glc6S
# Procedure, shortened: as §1
# Fuc(a1-2)[Gal(a1-3)]Gal = target: Fuc(a1-2)[Gal(a1-3)]Gal
# Procedure, shortened: as §1
# [3] = target: Fuc(a1-2)[Gal(a1-3)]Gal(b1-3)GalNAc
# Procedure, shortened: as §1
# [4] = target: Fuc(a1-2)[Gal(a1-3)]Gal(b1-3)GalNAc(b1-3)Gal(a1-4)Gal(b1-4)Glc
# Procedure, shortened: as §1
# [5] = target: Fuc(a1-2)[Gal(a1-3)]Gal(b1-3)GlcNAc
# Procedure, shortened: as §1
# [6] = target: Fuc(a1-2)[Gal(a1-3)]Gal(b1-3)GlcNAc(b1-2)Man(a1-3)[Fuc(a1-2)[Gal(a1-3)]Gal(b1-3)GlcNAc(b1-2)Man(a1-6)]Man(b1-4)GlcNAc(b1-4)GlcNAc
# Procedure, shortened: as §1
# [7] = target: Fuc(a1-2)[Gal(a1-3)]Gal(b1-3)GlcNAc(b1-2)Man(a1-3)[Fuc(a1-2)[Gal(a1-3)]Gal(b1-3)GlcNAc(b1-2)Man(a1-6)]Man(b1-4)GlcNAc(b1-4)[Fuc(a1-6)]GlcNAc
# Procedure, shortened: as §1
# [8] = target: Fuc(a1-2)[Gal(a1-3)]Gal(b1-3)GlcNAc(b1-3)GalNAc
# Procedure, shortened: as §1
# [9] = target: Fuc(a1-2)[Gal(a1-3)]Gal(b1-3)GlcNAc(b1-6)GalNAc
# Procedure, shortened: as §1
# [10] = target: Fuc(a1-2)[Gal(a1-3)]Gal(b1-4)Glc
# Procedure, shortened: as §1
# [11] = target: Fuc(a1-2)[Gal(a1-3)]Gal(b1-4)GlcNAc
# Procedure, shortened: as §1
# [12] = target: Fuc(a1-2)[Gal(a1-3)]Gal(b1-4)GlcNAc(b1-2)Man
# Procedure, shortened: as §1
# [13] = target: Fuc(a1-2)[Gal(a1-3)]Gal(b1-4)GlcNAc(b1-2)Man(a1-3)[Fuc(a1-2)[Gal(a1-3)]Gal(b1-4)GlcNAc(b1-2)Man(a1-6)]Man(b1-4)GlcNAc(b1-4)GlcNAc
# Procedure, shortened: as §1
# [14] = target: Fuc(a1-2)[Gal(a1-3)]Gal(b1-4)GlcNAc(b1-2)Man(a1-3)[Fuc(a1-2)[Gal(a1-3)]Gal(b1-4)GlcNAc(b1-2)Man(a1-6)]Man(b1-4)GlcNAc(b1-4)[Fuc(a1-6)]GlcNAc
# Procedure, shortened: as §1
# [15] = target: Fuc(a1-2)[Gal(a1-3)]Gal(b1-4)GlcNAc(b1-3)GalNAc
# Procedure, shortened: as §1
# [16] = target: Fuc(a1-2)[Gal(a1-3)]Gal(b1-4)GlcNAc(b1-3)[Fuc(a1-2)[Gal(a1-3)]Gal(b1-4)GlcNAc(b1-6)]GalNAc
# Procedure, shortened: as §1
# [17] = target: Fuc(a1-2)[Gal(a1-3)]Gal(b1-4)GlcNAc(b1-6)GalNAc
# Procedure, shortened: as §1
# [18] = target: Fuc(a1-2)[Gal(a1-3)]Gal(b1-4)[Fuc(a1-3)]Glc
# Procedure, shortened: as §1
# [19] = target: Fuc(a1-2)[Gal(a1-3)]Gal(b1-4)[Fuc(a1-3)]GlcNAc
# Procedure, shortened: as §1
# [20] = target: Fuc(a1-2)[Gal(a1-3)]Gal(b1-4)[Fuc(a1-3)]GlcNAc(b1-3)GalNAc
# Procedure, shortened: as §1
# [21] = target: Fuc(a1-2)[Gal(a1-4)]Gal(b1-4)GlcNAc
# Procedure, shortened: as §1
# [22] = target: Fuc(a1-2)[GalNAc(a1-3)]Gal
# Procedure, shortened: as §1
# [23] = target: Fuc(a1-2)[GalNAc(a1-3)]Gal(b1-3)GalNAc(a1-3)[Fuc(a1-2)]Gal(b1-4)GlcNAc
# Procedure, shortened: as §1
# [24] = target: Fuc(a1-2)[GalNAc(a1-3)]Gal(b1-3)GalNAc(b1-3)Gal(a1-4)Gal(b1-4)Glc
# Procedure, shortened: as §1
# [25] = target: Fuc(a1-2)[GalNAc(a1-3)]Gal(b1-3)GlcNAc
# Procedure, shortened: as §1
# [26] = target: Fuc(a1-2)[GalNAc(a1-3)]Gal(b1-3)GlcNAc(b1-2)Man(a1-3)[Fuc(a1-2)[GalNAc(a1-3)]Gal(b1-3)GlcNAc(b1-2)Man(a1-6)]Man(b1-4)GlcNAc(b1-4)GlcNAc
# Procedure, shortened: as §1
# [27] = target: Fuc(a1-2)[GalNAc(a1-3)]Gal(b1-3)GlcNAc(b1-2)Man(a1-3)[Fuc(a1-2)[GalNAc(a1-3)]Gal(b1-3)GlcNAc(b1-2)Man(a1-6)]Man(b1-4)GlcNAc(b1-4)[Fuc(a1-6)]GlcNAc
# Procedure, shortened: as §1
# [28] = target: Fuc(a1-2)[GalNAc(a1-3)]Gal(b1-3)GlcNAc(b1-3)GalNAc
# Procedure, shortened: as §1
# [29] = target: Fuc(a1-2)[GalNAc(a1-3)]Gal(b1-3)GlcNAc(b1-6)GalNAc
# Procedure, shortened: as §1
# [30] = target: Fuc(a1-2)[GalNAc(a1-3)]Gal(b1-4)Glc
# Procedure, shortened: as §1
# [31] = target: Fuc(a1-2)[GalNAc(a1-3)]Gal(b1-4)GlcNAc
# Procedure, shortened: as §1
# [32] = target: Fuc(a1-2)[GalNAc(a1-3)]Gal(b1-4)GlcNAc(b1-2)Man
# Procedure, shortened: as §1
# [33] = target: Fuc(a1-2)[GalNAc(a1-3)]Gal(b1-4)GlcNAc(b1-2)Man(a1-3)[Fuc(a1-2)[GalNAc(a1-3)]Gal(b1-4)GlcNAc(b1-2)Man(a1-6)]Man(b1-4)GlcNAc(b1-4)GlcNAc
# Procedure, shortened: as §1
# [34] = target: Fuc(a1-2)[GalNAc(a1-3)]Gal(b1-4)GlcNAc(b1-2)Man(a1-3)[Fuc(a1-2)[GalNAc(a1-3)]Gal(b1-4)GlcNAc(b1-2)Man(a1-6)]Man(b1-4)GlcNAc(b1-4)[Fuc(a1-6)]GlcNAc
# Procedure, shortened: as §1
# [35] = target: Fuc(a1-2)[GalNAc(a1-3)]Gal(b1-4)GlcNAc(b1-3)Gal(b1-4)GlcNAc
# Procedure, shortened: as §1
# [36] = target: Fuc(a1-2)[GalNAc(a1-3)]Gal(b1-4)GlcNAc(b1-3)Gal(b1-4)GlcNAc(b1-3)Gal(b1-4)GlcNAc
# Procedure, shortened: as §1
# [37] = target: Fuc(a1-2)[GalNAc(a1-3)]Gal(b1-4)GlcNAc(b1-3)GalNAc
# Procedure, shortened: as §1
# [38] = target: Fuc(a1-2)[GalNAc(a1-3)]Gal(b1-4)GlcNAc(b1-3)[Fuc(a1-2)[GalNAc(a1-3)]Gal(b1-4)GlcNAc(b1-6)]GalNAc
# Procedure, shortened: as §1
# [39] = target: Fuc(a1-2)[GalNAc(a1-3)]Gal(b1-4)GlcNAc(b1-6)GalNAc
# Procedure, shortened: as §1
# [40] = target: Fuc(a1-2)[GalNAc(a1-3)]Gal(b1-4)[Fuc(a1-3)]GlcNAc
# Procedure, shortened: as §1
# [41] = target: Fuc(a1-2)[GalNAc(a1-3)]Gal(b1-4)[Fuc(a1-3)]GlcNAc(b1-3)GalNAc
# Procedure, shortened: as §1
# [42] = target: Fuc(a1-2)[GalNAc(a1-4)]Gal(b1-4)GlcNAc
# Procedure, shortened: as §1
# [43] = target: Fuc(a1-2)[GalNAc(b1-3)]Gal
# Procedure, shortened: as §1
binder,measurement,setting,value
B1,glycan array binding signal (z-score),[1],1.7
same,glycan array binding signal (z-score),Fuc(a1-2)Gal6S(b1-4)Glc,-0.495
same,glycan array binding signal (z-score),[2],0.838
same,glycan array binding signal (z-score),Fuc(a1-2)[Gal(a1-3)]Gal,-0.44
same,glycan array binding signal (z-score),[3],-0.443
same,glycan array binding signal (z-score),[4],-0.453
same,glycan array binding signal (z-score),[5],0.163
same,glycan array binding signal (z-score),[6],-0.484
same,glycan array binding signal (z-score),[7],-0.058
same,glycan array binding signal (z-score),[8],-0.424
same,glycan array binding signal (z-score),[9],0.206
same,glycan array binding signal (z-score),[10],0.327
same,glycan array binding signal (z-score),[11],0.24
same,glycan array binding signal (z-score),[12],-0.421
same,glycan array binding signal (z-score),[13],-0.309
same,glycan array binding signal (z-score),[14],-0.126
same,glycan array binding signal (z-score),[15],-0.48
same,glycan array binding signal (z-score),[16],-0.484
same,glycan array binding signal (z-score),[17],0.234
same,glycan array binding signal (z-score),[18],0.184
same,glycan array binding signal (z-score),[19],-0.305
same,glycan array binding signal (z-score),[20],0.114
same,glycan array binding signal (z-score),[21],-0.494
same,glycan array binding signal (z-score),[22],-0.198
same,glycan array binding signal (z-score),[23],-0.386
same,glycan array binding signal (z-score),[24],-0.363
same,glycan array binding signal (z-score),[25],-0.454
same,glycan array binding signal (z-score),[26],-0.316
same,glycan array binding signal (z-score),[27],-0.503
same,glycan array binding signal (z-score),[28],-0.599
same,glycan array binding signal (z-score),[29],1.16
same,glycan array binding signal (z-score),[30],0.073
same,glycan array binding signal (z-score),[31],-0.633
same,glycan array binding signal (z-score),[32],-0.252
same,glycan array binding signal (z-score),[33],-0.088
same,glycan array binding signal (z-score),[34],-0.069
same,glycan array binding signal (z-score),[35],-0.383
same,glycan array binding signal (z-score),[36],-0.134
same,glycan array binding signal (z-score),[37],0.869
same,glycan array binding signal (z-score),[38],-0.329
same,glycan array binding signal (z-score),[39],-0.496
same,glycan array binding signal (z-score),[40],-0.514
same,glycan array binding signal (z-score),[41],-0.09
same,glycan array binding signal (z-score),[42],-0.192
same,glycan array binding signal (z-score),[43],-0.03
